# The whole screen tested about 220,000 compounds, of which about 5,700 (2.6%) were called active. This list was built around the results that the source calls inconclusive (neither active nor inactive); the mix of calls is not that of the screen. Calls come from the whole dose curve; as a rule, active = well fitted inhibition curve with a large enough effect; inconclusive = small, poorly fitted or top-dose-only effect; inactive = no such curve, though single readings can be large or run the other way. Potencies beside an inconclusive call are fits to weak or partial responses and may not hold up.
# Molecular target: Lysine-specific demethylase 5B (Homo sapiens) (UniProt Q9UGL1)
# UniProt Q9UGL1, sequence (Q9UGL1 whole entry, looked up): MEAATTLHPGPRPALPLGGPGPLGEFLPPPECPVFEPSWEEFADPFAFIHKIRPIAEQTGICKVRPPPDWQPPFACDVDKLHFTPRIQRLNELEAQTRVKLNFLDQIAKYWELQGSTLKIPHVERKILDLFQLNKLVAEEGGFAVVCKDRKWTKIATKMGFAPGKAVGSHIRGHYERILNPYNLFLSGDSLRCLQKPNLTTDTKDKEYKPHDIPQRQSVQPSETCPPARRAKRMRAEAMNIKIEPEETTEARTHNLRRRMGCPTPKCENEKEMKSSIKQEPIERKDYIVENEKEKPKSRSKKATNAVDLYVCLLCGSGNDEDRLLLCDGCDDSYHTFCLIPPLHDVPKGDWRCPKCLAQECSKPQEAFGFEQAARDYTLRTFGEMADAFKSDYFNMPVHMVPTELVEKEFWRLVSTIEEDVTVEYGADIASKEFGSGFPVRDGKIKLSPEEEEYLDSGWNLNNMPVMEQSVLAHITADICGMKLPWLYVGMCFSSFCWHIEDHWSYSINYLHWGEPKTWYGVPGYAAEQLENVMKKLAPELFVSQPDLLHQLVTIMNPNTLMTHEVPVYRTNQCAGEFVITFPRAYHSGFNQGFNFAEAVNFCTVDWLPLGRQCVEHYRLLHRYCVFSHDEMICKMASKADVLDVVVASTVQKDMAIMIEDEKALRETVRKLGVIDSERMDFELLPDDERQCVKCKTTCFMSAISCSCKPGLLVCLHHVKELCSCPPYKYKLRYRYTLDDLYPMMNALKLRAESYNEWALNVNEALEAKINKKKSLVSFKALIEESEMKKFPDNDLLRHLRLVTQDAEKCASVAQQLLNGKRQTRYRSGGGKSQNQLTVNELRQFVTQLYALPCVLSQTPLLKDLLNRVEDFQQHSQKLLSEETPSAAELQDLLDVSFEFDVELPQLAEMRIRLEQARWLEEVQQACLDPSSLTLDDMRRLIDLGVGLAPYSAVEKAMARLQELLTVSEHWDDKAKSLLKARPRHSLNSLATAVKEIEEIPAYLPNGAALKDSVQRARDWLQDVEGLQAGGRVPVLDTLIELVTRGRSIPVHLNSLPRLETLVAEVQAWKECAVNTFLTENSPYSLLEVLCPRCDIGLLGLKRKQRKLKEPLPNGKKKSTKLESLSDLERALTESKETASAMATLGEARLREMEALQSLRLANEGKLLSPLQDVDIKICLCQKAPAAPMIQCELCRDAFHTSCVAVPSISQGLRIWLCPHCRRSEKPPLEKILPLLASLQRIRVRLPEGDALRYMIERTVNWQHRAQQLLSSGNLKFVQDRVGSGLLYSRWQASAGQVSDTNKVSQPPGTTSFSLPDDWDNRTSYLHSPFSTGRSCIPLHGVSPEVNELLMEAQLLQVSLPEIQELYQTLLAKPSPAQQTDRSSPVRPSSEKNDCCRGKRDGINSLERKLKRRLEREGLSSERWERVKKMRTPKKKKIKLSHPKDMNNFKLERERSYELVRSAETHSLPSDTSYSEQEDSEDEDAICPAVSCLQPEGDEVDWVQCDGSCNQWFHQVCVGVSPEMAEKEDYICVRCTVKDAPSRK
# Assay: Primary screen for KDM5B Histone Demethylases FDH-coupled qHTS; note: nearly all actives have a fitted effect of over 70% in size; for activity change, negative = inhibition: 0% is about no effect
# Settings: FDH-coupled NADH fluorescence (FDH is formaldehyde dehydrogenase); activity change, negative = inhibition: at 57.7 µM (top of the series) unless noted
# Outline: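 Measured: NADH fluorescence change, 30 min, RT. System: KDM5BΔAP 200 nM final, H3K4me3 peptide, α-KG, Fe(II), ascorbate, NAD⁺ plus FDH, pH 7.5 HEPES. Compounds: titrated, 10 min pre-incubation with enzyme.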
# Potency is the fitted concentration of half-maximal effect; tags give direction and shape of the fitted curve.
Structure (SMILES),Potency,"activity change, negative = inhibition"
Cc1ccc(-c2nc(C(=O)Nc3cccc(C#N)c3)c3n2CCCCC3)cc1,"inconclusive: 31.6 µM [inhibitor, partial curve, poor fit]",–
CN(C(=O)c1ccc2cccc(F)c2n1)C1CCCN(CCCc2ccccc2)C1 (stereo not given),–,inactive: 14.3%
COc1cc(CNc2ccc3[nH]c(=O)[nH]c3c2)ccc1OCc1ccc(C)cc1,"inconclusive: 10 µM [inhibitor, partial curve, poor fit]",–
Cc1ccc(C)c(CN2CCC(CNC(=O)c3c(C)oc4ncnc(N5CCOCC5)c34)CC2)c1,"inconclusive: 22.4 µM [inhibitor, partial curve, poor fit]",–
CN1CC(=O)N(c2ccccc2)Cc2c1ncnc2N1CCOCC1,–,inactive: -5.42% [at 86.2 µM]
CN1C(=O)CO[C@H]2CCN(Cc3cccc(OC(F)(F)F)c3)CC[C@@H]21,–,inactive: -26.1% [at 86.2 µM]
CS(=O)(=O)N1CCc2[nH]cnc2C12CCN(C(=O)C1CCCC1)CC2,"inconclusive: 7.94 µM [inhibitor, full curve]",–
Cc1ccccc1CCNC(=O)c1cccc2ncccc12,–,inactive: 27%
CCCC1(CO)CCCN(Cc2ccc(OCC(=O)N3CCCC3)cc2)C1 (stereo not given),–,inactive: 26.4%
COc1ccc(-c2nc(C)c(CCNC(=O)c3cccs3)s2)cc1,"inconclusive: 17.8 µM [inhibitor, partial curve, poor fit]",–
COc1ccc(S(=O)(=O)Nc2nc3ccccc3nc2Nc2cc(C)ccc2C)cc1,–,inactive: -8.92%
Cc1noc2c(-c3cccnc3NCCCn3ccnc3)cc(-c3ccccc3)nc12,active: 35.5 µM,–
COc1ccccc1CC(=O)N1CCCc2ncc(C(=O)NCCOc3ccccc3)cc21,–,inactive: -16.8%
CCOc1ccccc1-c1cc(C(=O)OC)c2ccccc2n1,"inconclusive: 28.2 µM [inhibitor, partial curve, poor fit]",–
COc1ccccc1NC(=O)Cn1ccc2c(Cl)cccc21,–,inactive: 8.13%
CC(=O)NC1(C)CCCN(Cc2cccc(-c3cccc(F)c3)c2)C1 (stereo not given),–,inactive: -1.46% [at 86.2 µM]
CN(C)C1(CNC(=S)NCCc2ccccc2)CCCCC1,–,inactive: -11.8%
Cc1cc2nc(-c3cccc(NC(=O)COc4ccc(C(C)C)cc4)c3)oc2cc1C,"inconclusive: 44.7 µM [inhibitor, single point]",–
C/C(=N/Nc1ccc([N+](=O)[O-])cc1)c1ccncc1,–,inactive: -0.433%
COc1ccc(CCC(=O)N2CCC3(CC2)NCCc2c3[nH]c3ccc(OC)cc23)cc1,"inconclusive: 22.4 µM [inhibitor, partial curve]",–
COc1ccc(C(=O)NCCn2ccn3nc(-c4ccc(C)cc4C)cc3c2=O)c(C)c1,"inconclusive: 22.4 µM [inhibitor, single point]",–
c1ccc(-c2nnc([C@H]3CCN(Cc4ccco4)C3)o2)cc1,"inconclusive: 35.5 µM [inhibitor, single point]",–
COc1ccccc1-n1[nH]c(C)c(Cc2ccc(Br)cc2)c1=O,"inconclusive: 39.8 µM [inhibitor, single point]",–
Cc1ccc(S(=O)(=O)Nc2cnc3ccccc3c2)c(C)c1C,–,inactive: -29.2%

Structure (SMILES),Potency,"activity change, negative = inhibition"
COc1ccccc1CNC(=O)CCc1nnc2ccc(NCc3ccco3)nn12,–,inactive: -8.92%
Cc1cn2c(=O)c(S(=O)(=O)NC(C)c3ccccc3)c(C)nc2s1 (stereo not given),"inconclusive: 31.6 µM [inhibitor, partial curve, poor fit]",–
N[C@@H](Cc1ccccc1)c1nnc(SCc2ccc(Cl)c(Cl)c2)o1,–,inactive: 6.76%
Cc1[nH]c2ccccc2c1C(C(=O)O)N1CCN(c2cc(C)c3ccccc3n2)CC1 (stereo not given),"inconclusive: 12.6 µM [inhibitor, partial curve, poor fit]",–
CCOC(=O)c1sc(Nc2ccc(C(C)=O)cc2)nc1C,"inconclusive: 22.4 µM [inhibitor, partial curve, poor fit]",–
C/C(=N/O)c1cc2ccc(O)cc2oc1=O,"inconclusive: 28.2 µM [inhibitor, partial curve, poor fit]",–
COc1cccc(-c2nnc(SCC3CCOCO3)n2-c2ccc(C)cc2)c1 (stereo not given),–,inactive: 5.57%
FC(F)(F)c1cccc(CSc2nnc(SCc3cccc(C(F)(F)F)c3)s2)c1,"inconclusive: 15.8 µM [inhibitor, partial curve, poor fit]",–
CCOc1ccc(NC(=O)c2ccc3c(c2)c(C)c(C)n3Cc2ccc(F)cc2)cc1,"inconclusive: 35.5 µM [inhibitor, partial curve, poor fit]",–
CC1CCCCC1Nc1ncnc2c1CN(C1CCCNCC1)C(=O)CN2C (stereo not given),"inconclusive: 39.8 µM [inhibitor, partial curve, poor fit]",–
O=C(Nc1nc(-c2ccccn2)cs1)c1cccc(S(=O)(=O)N2CCOCC2)c1,"inconclusive: 25.1 µM [inhibitor, single point]",–
CCOc1ccccc1CNC(=O)c1cc2cn(C(C)C)cc2s1,"inconclusive: 7.94 µM [inhibitor, partial curve]",–
NC(=O)Cn1c(=O)n(-c2ccc(F)c(Cl)c2)c(=O)c2sc3ccccc3c21,"inconclusive: 15.8 µM [inhibitor, partial curve, poor fit]",–
Cc1c(O)ccc2c(CN3CCCCC3C)cc(=O)oc12 (stereo not given),"inconclusive: 20 µM [inhibitor, partial curve, poor fit]",–
C=CCOc1ccccc1NC(=O)c1ccccc1C,–,inactive: 11%
FC(F)(F)c1ccc(O[C@H]2COCCN(c3nc4ccccc4o3)C2)nc1,"inconclusive: 35.5 µM [inhibitor, single point]",–
COc1cccc(C(=O)NCCn2ccn3nc(-c4ccc(C)c(C)c4)cc3c2=O)c1,–,inactive: 33.1%
CC(CNC(=O)c1ccc(C(C)(C)C)cc1)NC(=O)c1ccc(C(C)(C)C)cc1 (stereo not given),–,inactive: -18.2%
CCOc1ccc(Cn2c(CNS(=O)(=O)c3cccs3)nc3cccnc32)cc1,"inconclusive: 1.12 µM [inhibitor, full curve, poor fit]",–
Cc1cccc(Cn2c(-c3cccs3)nc3ccccc32)c1,"inconclusive: 28.2 µM [inhibitor, partial curve, poor fit]",–
CC1(C(=O)NC2CCOCC2)CCCc2cnc(NCc3ccccc3)nc21 (stereo not given),active: 39.8 µM,–
CCN(CC)Cc1cnc2c(C(=O)N3CCCCC3CCO)cnn2c1 (stereo not given),"inconclusive: 22.4 µM [inhibitor, single point]",–
O=C(CCC1CCCCC1)NCC1CCCO1 (stereo not given),–,inactive: 28.3%
COC[C@H]1CCCN1C(=O)C[C@@H]1O[C@H](CNC(=O)c2ccccc2)[C@@H](O)[C@H]1O,–,inactive: -25.4% [at 86.2 µM]

Structure (SMILES),Potency,"activity change, negative = inhibition"
COc1ccc(CN(C)C(=O)CSc2nc(-c3cccs3)nc3ccccc23)cc1OC,"inconclusive: 39.8 µM [inhibitor, single point]",–
N#Cc1nc(COc2ccc(Br)cc2)oc1N1CCC(C(N)=O)CC1,"inconclusive: 22.4 µM [inhibitor, partial curve, poor fit]",–
Cc1[nH]nc2c1C(c1ccc(Cl)c(Cl)c1)C1=C(COC1=O)N2 (stereo not given),"inconclusive: 20 µM [inhibitor, partial curve, poor fit]",–
Cc1cc(=O)oc2c(C)c(OC(=O)CN3C(=O)NC4(CCCC4)C3=O)ccc12,–,inactive: 117%
COc1ccc(C=O)cc1COC(=O)COc1ccc(Cl)cc1Cl,–,inactive: -7.17%
O=C1CCCN1CCCN1C(=O)[C@H]2CN(Cc3ccc(Br)cc3)C[C@H]2C1=O,–,inactive: -15.1%
NCC(=O)N1CCC(n2nccc2NC(=O)Nc2ccccc2Cl)CC1,"inconclusive: 8.91 µM [inhibitor, partial curve, poor fit]",–
O=[N+]([O-])c1c(Nc2cccc(Cl)c2Cl)cc(Cl)c2nonc12,"inconclusive: 2 µM [inhibitor, full curve, poor fit]",–
CC(C)CNC(=O)c1ccc2c(c1)NC(C)(CNc1ccccc1)CO2 (stereo not given),"inconclusive: 31.6 µM [inhibitor, partial curve, poor fit]",–
CN(C)C(=O)CN(C)C(=O)Cn1c(=O)c2c(ncn2Cc2ccco2)n(Cc2ccccc2)c1=O,–,inactive: 0.23%
CCCOc1ccc(CNC(=O)CC2CCOCC2)cc1,"inconclusive: 25.1 µM [inhibitor, single point]",–
COc1cccc(NC(=O)c2nnn(Cc3cccc(C(F)(F)F)c3)c2N)c1,"inconclusive: 39.8 µM [inhibitor, single point]",–
COc1cccc(-c2ccc3onc(C)c3n2)c1,"inconclusive: 39.8 µM [inhibitor, single point]",–
CCOC(=O)c1csc(N/N=C2\CCc3ccccc32)n1,"inconclusive: 39.8 µM [inhibitor, single point]",–
CCn1cc(/C=C/c2cc[n+](C)cc2)c2ccccc21,"inconclusive: 25.1 µM [inhibitor, partial curve, poor fit]",–
COc1ccc(-c2cc(C[C@H]3CNCC[C@H]3CC(=O)N3CCC(Cc4ccccc4)CC3)no2)cc1,"inconclusive: 31.6 µM [inhibitor, single point]",–
CCn1c(C)ccc(C(=O)N[C@@H]2COCC[C@H]2Oc2ccccn2)c1=O,active: 28.2 µM,–
CCc1ccc(OCC(=O)Nc2c(C(=O)c3ccccc3)oc3ccccc23)cc1,"inconclusive: 17.8 µM [inhibitor, single point]",–
CCc1ccc(CNC(=O)c2ccc3c(c2)N(C)C2CCCCN2C3=O)cc1 (stereo not given),"inconclusive: 28.2 µM [inhibitor, partial curve, poor fit]",–
Cn1cccc1/C=C(\C#N)c1ccc(F)cc1,–,inactive: 5.99%
COc1ccc(/C=C/c2ccc3c(c2)C(=O)N2CC[C@H](NC(=O)CCC(=O)O)[C@H]2C(=O)N3)cc1,active: 28.2 µM,–
Cc1ccc(Sc2cc3ccccc3oc2=O)cc1,"inconclusive: 39.8 µM [inhibitor, single point]",–

# — PubChem BioAssay AID1347165 (National Center for Advancing Translational Sciences (NCATS), 2019)
